# According to publication PMC6212790:
# Some of the results follow. At the low end of the ranking, values are background and their order means little.
# Biological target: T1, GST-Rok (full length) (UniProt O34857)
# T1 sequence: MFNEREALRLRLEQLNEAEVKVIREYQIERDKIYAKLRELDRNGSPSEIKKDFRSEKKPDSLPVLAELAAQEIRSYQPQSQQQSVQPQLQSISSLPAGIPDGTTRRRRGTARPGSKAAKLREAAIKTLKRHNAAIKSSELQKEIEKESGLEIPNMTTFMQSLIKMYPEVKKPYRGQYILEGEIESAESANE
# Assay: protein binding microarray;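 further: rank score from −0.5 (least bound) to 0.5 (best bound)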
# Conditions: Rok is a gene silencer of Bacillus subtilis; high values mean tight binding; most listed sequences are background and not binding sites; double strand, one strand shown
row,Sequence,binding signal [E-score]
1,CTAATTAG,0.375
2,ACACATCC,-0.13
3,GCGAAATA,0.173
4,CGTTAACC,-0.112
5,ATGAGGCC,-0.166
6,GCAACCGA,0.0352
7,CGTTGGGA,-0.188
8,TCCCGTCA,-0.264
9,CAAGTTCA,0.099
10,GCTGTGGA,-0.12
11,ATTTAGAC,0.0629
12,AGATCGCG,0.000221
13,GCGCTGTA,0.162
14,ACGGTCAG,-0.115
15,GAGGCACA,-0.128
16,GTTTTTCA,-0.177
17,TCTCCCCA,-0.126
18,ACGCCAGG,-0.146
19,CATGTGAG,-0.0984
20,CGAACACC,-0.0633
21,ATTCCATG,0.168
22,CGGCCGCC,-0.38
23,AAGAGCCA,-0.223
24,CATTCTCC,-0.0961
25,CGGTAAAC,0.184

row,Sequence,binding signal [E-score]
1,ACGCAAAG,-0.0351
2,GTTTCAGA,0.0234
3,ACGATGTG,0.0494
4,CATTGGCC,-0.337
5,AAAGTTCT,0.0582
6,GGTAGCGA,0.0576
7,ATTTTAGA,0.168
8,GAAGCGCC,-0.244
9,GACCCCGC,-0.344
10,ATCTTGTC,0.116
11,CGTACACA,0.16
12,CTTCCACC,-0.268
13,AAATGTTA,0.185
14,CCGACAGC,-0.0139
15,GGGGAGAC,-0.262
16,CTGACAGA,0.0624
17,ATATAATC,0.152
18,AGCTGCGA,-0.00607
19,CAACATGA,0.0494
20,AGTAGCCA,-0.0245
21,CTGGGCTA,0.0101
22,AAAGAAGC,-0.0244
23,CCTATCCA,-0.0329
24,CAGTCTCA,-0.00808
25,GACAACCC,-0.241

row,Sequence,binding signal [E-score]
1,ATGGAGCC,-0.237
2,CTGTAGAC,0.117
3,AGGGTAGC,-0.0989
4,AACTTGCT,0.079
5,ATAAGGGA,-0.112
6,ACGGCTAT,0.0117
7,GCGACTAA,-0.128
8,GGTAGAAC,0.374
9,AAGTGCAG,0.000661
10,AATAGCCT,0.0206
11,ACACGTGG,-0.00298
12,CGAAGTGA,-0.0568
13,AGTGATAT,0.299
14,TATGAGCA,0.00785
15,CTTGTCAC,-0.236
16,CCAAGCTC,-0.269
17,AAGTCAGG,0.0364
18,CCTCCTAG,-0.305
19,CAGCGCCA,-0.299
20,AAGGCAGA,-0.261
21,ACCTGAGG,-0.131
22,TCTAGGCA,-0.0401
23,ACTAACGG,0.269
24,CCGCATAC,0.0121
25,CGCTATTA,0.211

row,Sequence,binding signal [E-score]
1,GATAGCCA,-0.128
2,CGCGTCCC,-0.235
3,AGCCCTGA,-0.252
4,ACCCCATA,-0.257
5,ATGATGAC,0.162
6,AGACCTTG,-0.161
7,TCAAATGA,0.0213
8,CGAGTTAG,0.0866
9,TAAGAAGA,-0.0534
10,AGTGGACA,0.0404
11,CGCGCTAC,0.0272
12,AGGGCATC,-0.128
13,AGTGGATG,0.0468
14,GCCGGCCA,-0.186
15,AATACAAA,0.206
16,AACCTCTG,-0.244
17,GAGTACTA,0.13
18,ATCTATTG,0.282
19,ACTTAAAA,-0.0205
20,AGCTGAAA,0.118
21,ATAAGGAC,-0.2
22,AAGTTTTC,-0.00426
23,CCTTATCC,-0.193
24,ATCCGGTC,-0.0705
25,CTGGATCC,-0.0878

row,Sequence,binding signal [E-score]
1,ACTATTAA,0.289
2,AAGGTGGC,-0.203
3,GGCCCTCA,-0.333
4,GAAGGATC,-0.19
5,GGCGAACC,-0.172
6,CTTTAATA,0.17
7,ATCCTGGC,0.0825
8,GCAAGTGC,-0.0648
9,GGCATTAA,-0.00985
10,AGGTGAGG,-0.304
11,CACGGACC,-0.368
12,ACATGGAG,0.0619
13,GGAGTCGA,-0.216
14,GCTCTCAA,-0.174
15,AACGAATA,-0.0498
16,AAATAAAT,0.277
17,CATTGAAA,-0.0384
18,CATCAGCA,0.0614
19,CGCGCTGC,-0.189
20,AATTGGTG,-0.022
21,ACTCTGGA,-0.14
22,ACGGGTCA,-0.352
23,TAGTTTCA,0.392
24,CATGACCC,0.0788
25,TAAAATTA,0.199

row,Sequence,binding signal [E-score]
1,CGCGCCAA,-0.0904
2,CCAATTCA,-0.128
3,TAAAGTTA,0.241
4,TCCACGAA,0.0984
5,AGTCAACA,-0.00312
6,CATCCTTA,-0.0116
7,ATCATAAC,0.124
8,AATGTAAG,0.143
9,CACGGAGG,-0.272
10,GCATTAGC,-0.0546
11,CGCATCCA,-0.0328
12,GAGTTTCA,-0.16
13,ATCGTGAA,0.0977
14,CGCTAAAG,-0.0203
15,AGTAGTGA,0.0919
16,AAACGCGT,0.0134
17,CAATAACA,0.0252
18,GGTCTCAA,-0.171
19,ACCCAGGA,-0.0255
20,AAAAGGGG,-0.259
21,CACCGGAC,-0.206
22,ATCGAGTA,0.291
23,AAGAATGC,-0.133
24,CTTTTTAA,-0.0243
25,CAACCCAC,-0.205

row,Sequence,binding signal [E-score]
1,GGAGTCCA,-0.17
2,TCAGCACA,-0.0657
3,CTAACGTA,0.15
4,ATAGTCGA,0.117
5,TAGTACAA,0.265
6,GTGCCCAC,-0.113
7,ACTTGACT,0.0107
8,AAATGCGT,0.153
9,GATCACCC,-0.243
10,ACGTTTAC,0.0787
11,GACTTACC,0.136
12,TCCCTTAA,-0.159
13,CCCCAACA,-0.198
14,CACTACAA,0.143
15,ACACGGCG,-0.143
16,GAGGTTGA,-0.0617
17,CGGACAAC,-0.223
18,TACCGGTA,0.37
19,CACTCGAA,-0.000333
20,CGTCTACC,0.0246
21,CCGATAGC,0.0165
22,AGCCACTG,-0.226
23,GATGCCAC,-0.22
24,AGCCGAGA,-0.224
25,GTCTAGAC,0.168

row,Sequence,binding signal [E-score]
1,ACCGTCGC,-0.261
2,ATTAGACG,0.0757
3,CTACGCTC,-0.131
4,CAAGGAGA,-0.213
5,GGGCTATA,-0.0501
6,AATTAGGG,-0.0268
7,AACATAGT,0.205
8,AGGGCAAG,-0.303
9,CATTAAAG,-0.0743
10,AATCCCGG,-0.195
11,ACTGGTTA,0.0445
12,GGACGCGA,-0.252
13,ACAGGGAT,-0.0596
14,GGGTGGAC,-0.379
15,GCCGGCGA,-0.312
16,CACACCCG,-0.293
17,CAGTTAAG,-0.054
18,AAGATTTC,0.113
19,AGGTCTAC,0.0332
20,AGCAATCC,0.0127
21,CGTCATCA,-0.185
22,AGAATGCG,0.0578
23,CGTACAAA,0.194
24,CTGTGGCA,-0.207
25,AACGGGTA,-0.0103

row,Sequence,binding signal [E-score]
1,CCACTTCG,-0.0384
2,ACGTCCAG,-0.000994
3,GCAATTGC,0.146
4,CCTATCGA,0.144
5,GGGTACAC,-0.207
6,CCGCCAGA,-0.268
7,GGGTGAGA,-0.126
8,AGCCTCAG,-0.214
9,CACGATGC,0.0284
10,CACATCGG,-0.177
11,ATGGATCG,0.0845
12,GCAACCCA,-0.00137
13,ATGTGGTC,-0.125
14,AGGATTAA,0.0191
15,GCGCGACA,0.021
16,GCGATGAC,-0.0125
17,ACACACTC,0.000516
18,ACGATCTC,-0.146
19,AATATCAG,0.151
20,ACACTACT,0.236
21,TACCGGGA,-0.00971
22,CACACTCC,-0.243
23,CTATGGCC,-0.0832
24,GATACGGC,-0.136
25,CACCAAAC,0.182

row,Sequence,binding signal [E-score]
1,AAGGTTCT,-0.0946
2,CAACATCG,0.0482
3,AGCAGTAA,0.161
4,CAATCCTG,-0.0381
5,ACCAGGGT,-0.133
6,GGTGGAGA,-0.0713
7,CCTCCTTC,-0.309
8,TGTCCAAA,0.0695
9,ATCTAACC,0.0779
10,TCAGTCCA,-0.23
11,AAACCTGG,-0.0374
12,GAAGGTAA,0.0269
13,TAAATTTA,0.361
14,ACGTGGTA,0.162
15,AGGGACGC,-0.339
16,AGACTGTG,-0.176
17,CCCGGGCG,-0.401
18,TCACGGAA,-0.0608
19,ACATTCGT,0.0978
20,ACGGTACA,0.198
21,AAGTAGGC,-0.0183
22,CTAGGGAG,-0.242
23,GAGGACTA,-0.113
24,GACATGTA,0.192
25,CCTCCAGA,-0.168

row,Sequence,binding signal [E-score]
1,GGGGGTAC,-0.313
2,ACAGCCAC,-0.129
3,CTCTCGCA,-0.26
4,CCTGATCG,-0.00357
5,TATAAATA,0.397
6,AGGAGCCC,-0.365
7,TCAGGAAA,-0.0718
8,AAATTCGC,0.0646
9,TCGAACGA,0.0918
10,AGATTGTC,0.135
11,CGATTGGA,-0.267
12,AATTCGTA,0.263
13,CTCCATTC,0.0472
14,TAAGTCAA,0.0333
15,GAGCGGTA,0.0846
16,AGGACATG,-0.123
17,AGTACGCA,0.194
18,TGGGATAA,-0.0466
19,CACCTATC,0.0598
20,ACTTAGAA,0.142
21,CACACGAC,0.0625
22,CCCATCGG,-0.38
23,ACACTTAG,0.198
24,ACTAGCGG,0.188
25,CTTGTCAA,0.000136

row,Sequence,binding signal [E-score]
1,GACTTATA,0.257
2,CTCGTAGA,0.106
3,AAATGTAC,0.343
4,ACTCAGTC,-0.104
5,TGCGTACA,0.0261
6,CCCCATGA,-0.154
7,AGCGGCGA,-0.0194
8,CCAACCAA,-0.0363
9,GGACCGCC,-0.414
10,ATAGGGAC,-0.122
11,CTGATGAC,-0.227
12,GAAACACC,-0.144
13,CAACAAAG,0.0451
14,CGATTGAA,0.0995
15,ATTCCTTC,-0.0807
16,CTACTGGC,0.016
17,ATCATACG,0.162
18,GGTCTTCA,-0.177
19,GGGTAGTA,0.238
20,GAGTGTGA,0.079
21,ACGGTTCG,-0.0124
22,CCGAGACC,-0.247
23,ATAATTAG,0.317
24,GAGAAGTA,0.219
25,ATGGCTCG,-0.0233

row,Sequence,binding signal [E-score]
1,CAAGTCTC,-0.311
2,AAACGTCG,-0.134
3,ATTCCTAA,0.0277
4,AGGCTAAG,-0.154
5,AGCGGGCG,-0.392
6,CCCGCGGG,-0.305
7,AACGTGAG,0.00804
8,ACAGAACA,-0.147
9,ACTTCGCC,0.0315
10,AAAACGCG,-0.0623
11,ACGTGTAA,0.103
12,GCCCCCAA,-0.255
13,AAACACAA,0.157
14,ACCCCGCT,-0.246
15,CCGCCGAA,-0.277
16,CGTGTGCC,-0.181
17,CCTTTTAC,-0.0953
18,AGATTAAA,0.106
19,ATATACAA,0.389
20,CCAAGTAA,0.0457
21,ATGCGTGA,-0.0429
22,ATGAAGTG,-0.129
23,ATTTCCGC,0.0588
24,CGGATCGC,-0.241
25,AACCCATT,0.108

row,Sequence,binding signal [E-score]
1,ACGTACGT,0.0831
2,ATTACCTG,0.126
3,ACACGTCC,-0.187
4,AAGAGGGT,-0.186
5,CATCCTGC,-0.116
6,TGAGATCA,0.0366
7,ATGCACAA,0.0999
8,ACCGCTTA,-0.0233
9,TGTATAAA,0.267
10,ACACCTAA,0.199
11,AATCAGAT,-0.108
12,CAATCAAG,-0.0294
13,ATATTCAG,0.1
14,ATCACATG,0.0965
15,CATTAAGC,-0.00344
16,GGTGGGAA,0.00996
17,ACCACGCT,-0.0407
18,CAAGTGCC,-0.231
19,TAAGGTGA,-0.0719
